The other results are listed elsewhere or left out.
Legend:
Assay in all cases: glycan array binding signal (z-score within array); higher = stronger binding
Conditions in all cases: glycan notation: IUPAC condensed, linker removed
[1] = target: Gal(b1-3)GlcNAc(b1-2)Man(a1-3)[Gal(b1-3)GlcNAc(b1-2)Man(a1-6)]Man(b1-4)GlcNAc(b1-4)[Fuc(a1-6)]GlcNAc
Procedure, shortened: (§1)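 Columns mapping to the same glycan were averaged after glycan names were converted to IUPAC-condensed notation. The data come from 3228 arrays in the Consortium for Functional Glycomics database, limited to those with an available protein sequence. Binding is reported as a within-array Z-score averaged across arrays of one protein sequence and across linkers.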

[2] = target: Gal(b1-3)GlcNAc(b1-2)Man(a1-3)[GlcNAc(b1-4)][Gal(b1-3)GlcNAc(b1-2)Man(a1-6)]Man(b1-4)GlcNAc(b1-4)GlcNAc
Procedure, shortened: as §1

[3] = target: Gal(b1-3)GlcNAc(b1-2)[Gal(b1-3)GlcNAc(b1-6)]Man(a1-6)[Gal(b1-3)GlcNAc(b1-2)Man(a1-3)]Man(b1-4)GlcNAc(b1-4)GlcNAc
Procedure, shortened: as §1

[4] = target: Gal(b1-3)GlcNAc(b1-3)Gal(b1-3)GlcNAc
Procedure, shortened: as §1

[5] = target: Gal(b1-3)GlcNAc(b1-3)Gal(b1-4)Glc
Procedure, shortened: as §1

[6] = target: Gal(b1-3)GlcNAc(b1-3)Gal(b1-4)GlcNAc
Procedure, shortened: as §1

[7] = target: Gal(b1-3)GlcNAc(b1-3)Gal(b1-4)GlcNAc(b1-2)Man(a1-3)[Gal(b1-3)GlcNAc(b1-3)Gal(b1-4)GlcNAc(b1-2)Man(a1-6)]Man(b1-4)GlcNAc(b1-4)GlcNAc
Procedure, shortened: as §1

[8] = target: Gal(b1-3)GlcNAc(b1-3)Gal(b1-4)GlcNAc(b1-2)[Gal(b1-3)GlcNAc(b1-3)Gal(b1-4)GlcNAc(b1-6)]Man(a1-6)[Gal(b1-3)GlcNAc(b1-3)Gal(b1-4)GlcNAc(b1-2)Man(a1-3)]Man(b1-4)GlcNAc(b1-4)[Fuc(a1-6)]GlcNAc
Procedure, shortened: as §1

[9] = target: Gal(b1-3)GlcNAc(b1-3)Gal(b1-4)GlcNAc(b1-3)Gal(b1-4)GlcNAc(b1-2)[Gal(b1-3)GlcNAc(b1-3)Gal(b1-4)GlcNAc(b1-3)Gal(b1-4)GlcNAc(b1-6)]Man(a1-6)[Gal(b1-3)GlcNAc(b1-3)Gal(b1-4)GlcNAc(b1-3)Gal(b1-4)GlcNAc(b1-2)Man(a1-3)]Man(b1-4)GlcNAc(b1-4)[Fuc(a1-6)]GlcNAc
Procedure, shortened: as §1

[10] = target: Gal(b1-3)GlcNAc(b1-3)Gal(b1-4)GlcNAc(b1-6)[Gal(b1-3)GlcNAc(b1-3)]Gal(b1-4)Glc
Procedure, shortened: as §1

[11] = target: Gal(b1-3)GlcNAc(b1-3)Gal(b1-4)[Fuc(a1-3)]GlcNAc
Procedure, shortened: as §1

[12] = target: Gal(b1-3)GlcNAc(b1-3)Gal(b1-4)[Fuc(a1-3)]GlcNAc(b1-6)[Gal(b1-3)GlcNAc(b1-3)]Gal(b1-4)Glc
Procedure, shortened: as §1

[13] = target: Gal(b1-3)GlcNAc(b1-3)GalNAc
Procedure, shortened: as §1

[14] = target: Gal(b1-3)GlcNAc(b1-6)Gal(b1-4)GlcNAc
Procedure, shortened: as §1

[15] = target: Gal(b1-3)GlcNAc(b1-6)GalNAc
Procedure, shortened: as §1

[16] = target: Gal(b1-3)GlcNAc(b1-6)[Gal(b1-3)]GalNAc
Procedure, shortened: as §1

Gal(b1-3)GlcNAc6S = target: Gal(b1-3)GlcNAc6S
Procedure, shortened: as §1

[17] = target: Gal(b1-3)[Fuc(a1-4)]GlcNAc
Procedure, shortened: as §1

[18] = target: Gal(b1-3)[Fuc(a1-4)]GlcNAc(b1-2)Man
Procedure, shortened: as §1

[19] = target: Gal(b1-3)[Fuc(a1-4)]GlcNAc(b1-2)Man(a1-3)[Gal(b1-3)[Fuc(a1-4)]GlcNAc(b1-2)Man(a1-6)]Man(b1-4)GlcNAc(b1-4)[Fuc(a1-6)]GlcNAc
Procedure, shortened: as §1

[20] = target: Gal(b1-3)[Fuc(a1-4)]GlcNAc(b1-3)Gal(b1-3)[Fuc(a1-4)]GlcNAc
Procedure, shortened: as §1

[21] = target: Gal(b1-3)[Fuc(a1-4)]GlcNAc(b1-3)Gal(b1-4)[Fuc(a1-3)]GlcNAc
Procedure, shortened: as §1

[22] = target: Gal(b1-3)[Fuc(a1-4)]GlcNAc(b1-6)GalNAc
Procedure, shortened: as §1

[23] = target: Gal(b1-3)[GlcNAc(b1-6)]GalNAc
Procedure, shortened: as §1

[24] = target: Gal(b1-3)[Neu5Ac(a2-6)]GalNAc
Procedure, shortened: as §1

[25] = target: Gal(b1-3)[Neu5Ac(a2-6)]GlcNAc(b1-4)Gal(b1-4)Glc
Procedure, shortened: as §1

[26] = target: Gal(b1-3)[Neu5Ac(b2-6)]GalNAc
Procedure, shortened: as §1

Gal(b1-4)Gal = target: Gal(b1-4)Gal
Procedure, shortened: as §1

[27] = target: Gal(b1-4)GalNAc(a1-3)[Fuc(a1-2)]Gal(b1-4)GlcNAc
Procedure, shortened: as §1

[28] = target: Gal(b1-4)GalNAc(b1-3)[Fuc(a1-2)]Gal(b1-4)GlcNAc
Procedure, shortened: as §1

Gal(b1-4)Glc = target: Gal(b1-4)Glc
Procedure, shortened: as §1

Gal(b1-4)Glc6S = target: Gal(b1-4)Glc6S
Procedure, shortened: as §1

Gal(b1-4)GlcNAc = target: Gal(b1-4)GlcNAc
Procedure, shortened: as §1

[29] = target: Gal(b1-4)GlcNAc(a1-6)Gal(b1-4)GlcNAc
Procedure, shortened: as §1

Gal(b1-4)GlcNAc(b1-2)Man = target: Gal(b1-4)GlcNAc(b1-2)Man
Procedure, shortened: as §1

[30] = target: Gal(b1-4)GlcNAc(b1-2)Man(a1-3)Man(b1-4)GlcNAc(b1-4)GlcNAc
Procedure, shortened: as §1

[31] = target: Gal(b1-4)GlcNAc(b1-2)Man(a1-3)[Gal(b1-4)GlcNAc(b1-2)Man(a1-6)]Man(b1-4)GlcNAc(b1-4)GlcNAc
Procedure, shortened: as §1

[32] = target: Gal(b1-4)GlcNAc(b1-2)Man(a1-3)[Gal(b1-4)GlcNAc(b1-2)Man(a1-6)]Man(b1-4)GlcNAc(b1-4)[Fuc(a1-6)]GlcNAc
Procedure, shortened: as §1

[33] = target: Gal(b1-4)GlcNAc(b1-2)Man(a1-3)[Gal(b1-4)GlcNAc(b1-2)Man(a1-6)][Gal(b1-4)GlcNAc(b1-4)]Man(b1-4)GlcNAc(b1-4)[Fuc(a1-6)]GlcNAc
Procedure, shortened: as §1

[34] = target: Gal(b1-4)GlcNAc(b1-2)Man(a1-3)[Gal(b1-4)GlcNAc(b1-2)Man(a1-6)][GlcNAc(b1-4)]Man(b1-4)GlcNAc(b1-4)[Fuc(a1-6)]GlcNAc
Procedure, shortened: as §1

[35] = target: Gal(b1-4)GlcNAc(b1-2)Man(a1-3)[GlcNAc(b1-2)Man(a1-6)]Man(b1-4)GlcNAc(b1-4)GlcNAc
Procedure, shortened: as §1

[36] = target: Gal(b1-4)GlcNAc(b1-2)Man(a1-3)[GlcNAc(b1-4)][Gal(b1-4)GlcNAc(b1-2)Man(a1-6)]Man(b1-4)GlcNAc(b1-4)GlcNAc
Procedure, shortened: as §1

[37] = target: Gal(b1-4)GlcNAc(b1-2)Man(a1-3)[Man(a1-6)]Man(b1-4)GlcNAc(b1-4)GlcNAc
Procedure, shortened: as §1

[38] = target: Gal(b1-4)GlcNAc(b1-2)Man(a1-6)Man(b1-4)GlcNAc(b1-4)GlcNAc
Procedure, shortened: as §1

[39] = target: Gal(b1-4)GlcNAc(b1-2)Man(a1-6)[GlcNAc(b1-2)Man(a1-3)]Man(b1-4)GlcNAc(b1-4)GlcNAc
Procedure, shortened: as §1

B1: rEtpA (Escherichia coli) (protein)
chain: MNRIYKLKFDKRRNELVVVSEITTGVGNAKATGSVEGEKSPRRGVRAMALSLLSGMMIMAHPAMSANLPTGGQIVAGSGSIQTPSGNQMNIHQNSQNMVANWNSFDIGKGNTVQFDQPSSSAVALNRVVGGGESQIMGNLKANGQVFLVNPNGVLFGEGASVSTSGFVASTRDIKNDDFMNRRYTFSGGQKAGAAIVNQGELTTNAGGYIVLAADRVSNSGTIRTPGGKTVLAASERITLQLDNGGLMSVQVTGDVVNALVENRGLVSARDGQVYLTALGRGMLMNTVLNVSGVVEASGMHRQDGNIVLDGGDSGVVHLSGTLQADNASGQGGKVVVQGKNILLDKGSNITATGGQGGGEVYVGGGWQGKDSNIRNADKVVMQGGARIDVSATQQGNGGTAVLWSDSYTNFHGQISAKGGETGGNGGRVETSSHGNLQAFGTVSASAKKGKAGNWLLDSADITIVNGSNVSKTETTQSPPHTQFAPTAAGSAVSNTSINNRLNNGTSVTILTHRTRTGTAQGGNITVNAAINKSNGSDVNLTLQAGGNITVNNSITSTEGKLNVNLSGARTSNGSITISNNANITTNGGDITVGTTNTSNRVNISINNTTLNASNGNIQLTGTGTDSGILFAGNNRLTASNIALTGNSTSGNAINLTGTATLNATNNITLTGSSTSGNAINLKGNNTLTASNITLTGESTSGNAINLTDTTGTTTLNATNNITMQGTRVQIKHSNITAGNFALNATVAGSEISNTTLTATNNINLAAKTNSASSGVYLKDARITSTNGSITANGTATANGKATHLDGNVTLNASNGRIKLTGNGHGSASGILFAGNNRLTASNIALTGNSTSGNAINLTGTATLNATNDITLTGSSTSGNAINLTGTATLNATNNITLTGSSTSGNAINLKGNNTLTASNITLTGESTSGNAINLTDTTGTTTLNATNNITMQGTRVQIKHSNITAGNFALNATVAGSEISNTTLTATNNINLAAKTNSASSGVYLKDARITSTNGSITANGTATANGKATHLDGNVTLNASNGRIKLTGNGHGSASGILFAGNNRLTASNIALTGNSTSGNAINLTGTATLNATNDITLTGSSTSGNAINLTGTATLNATNNITLTGSSTSGNAINLKGNNTLTASNITLTGESTSGNAINLTDTTGTTTLNATNNITMQGTRVQIKHSNITAGNFALNATVAGSEISNTTLTATNNINLAAKTNSASSGVYLKDARITSTNGSITANGTATANGKATHLDGNVTLNASNGRIKLTGNGHGSASGILFAGNNRLTASNIALTGNSTSGNAINLTGTATLNATNDITLTGSSTSGNAINLTGTATLNATNNITLTGSSTSGNAINLKGNNTLTASNITLTGESTSGNAINLTDTTGTTTLNATNNITMQGTRVQIKHSNITAGNFALNATVAGSEISNTTLTATNNINLAAKTNSASSGVYLKDARITSTNGSITTNGTATANGKATHLDGNVTLNASNGRIKLTGNGHGSASGILFAGNNRLTASNIALTGNSTSGNAINLTGTATLNATNDITLTGSSTSGNAINLTGTATLNATNNITLTGSSTSGNAINLKGNNTLTASNITLTGESTSGNAINLTDTTGTTTLNATNNITMQGTRVQIKHSNITAGNFALNATVAGSEISNTTLTATNNINLAAKTNSASSGVYLKDARITSTNGSITANGTAPANDNATYLDGNVTLNASNGSIKLTGNGNGSTSGILFAGNNTLTASNITLTGNSEVYWQKLGPEQKLISEEDLNSAVDHHHHHH
glycan array binding signal (z-score) [1]: 0.011
glycan array binding signal (z-score) [2]: 0.227
glycan array binding signal (z-score) [3]: 1.25
glycan array binding signal (z-score) [4]: -0.221
glycan array binding signal (z-score) [5]: -0.484
glycan array binding signal (z-score) [6]: -0.457
glycan array binding signal (z-score) [7]: -0.343
glycan array binding signal (z-score) [8]: -0.177
glycan array binding signal (z-score) [9]: -0.05
glycan array binding signal (z-score) [10]: -0.347
glycan array binding signal (z-score) [11]: -0.345
glycan array binding signal (z-score) [12]: -0.382
glycan array binding signal (z-score) [13]: -0.197
glycan array binding signal (z-score) [14]: -0.409
glycan array binding signal (z-score) [15]: -0.422
glycan array binding signal (z-score) [16]: -0.375
glycan array binding signal (z-score) (Gal(b1-3)GlcNAc6S): -0.241
glycan array binding signal (z-score) [17]: -0.298
glycan array binding signal (z-score) [18]: 0.903
glycan array binding signal (z-score) [19]: -0.041
glycan array binding signal (z-score) [20]: -0.447
glycan array binding signal (z-score) [21]: -0.326
glycan array binding signal (z-score) [22]: -0.25
glycan array binding signal (z-score) [23]: -0.347
glycan array binding signal (z-score) [24]: -0.225
glycan array binding signal (z-score) [25]: -0.373
glycan array binding signal (z-score) [26]: -0.274
glycan array binding signal (z-score) (Gal(b1-4)Gal): 1.5
glycan array binding signal (z-score) [27]: -0.332
glycan array binding signal (z-score) [28]: -0.404
glycan array binding signal (z-score) (Gal(b1-4)Glc): -0.343
glycan array binding signal (z-score) (Gal(b1-4)Glc6S): -0.251
glycan array binding signal (z-score) (Gal(b1-4)GlcNAc): -0.255
glycan array binding signal (z-score) [29]: -0.439
glycan array binding signal (z-score) (Gal(b1-4)GlcNAc(b1-2)Man): 0.585
glycan array binding signal (z-score) [30]: -0.058
glycan array binding signal (z-score) [31]: -0.356
glycan array binding signal (z-score) [32]: -0.26
glycan array binding signal (z-score) [33]: -0.392
glycan array binding signal (z-score) [34]: -0.441
glycan array binding signal (z-score) [35]: -0.408
glycan array binding signal (z-score) [36]: -0.274
glycan array binding signal (z-score) [37]: -0.452
glycan array binding signal (z-score) [38]: -0.376
glycan array binding signal (z-score) [39]: -0.16

From the supplement of paper PMC8728848
